# Measured values as given in the supplement of paper PMC8728848.
# The list shows a part of the results.
# B1: AFL (Aspergillus fumigatus), Q4WW81 (protein)
# chain: STPGAQQVLFRTGIAAVNLTNHLRVYFQDVYGSIRESLYEGSWANGTEKNVIGNAKLGSPVAATSKELKHIRVYTLTEGNTLQEFAYDSGTGWYNGGLGGAKFQVAPYSRIAAVFLAGTDALQLRIYAQKPDNTIQEYMWNGDGWKEGTNLGGALPGTGIGATSFRYTDYNGPSIRIWFQTDDLKLVQRAYDPHKGWYPDLVTIFDRAPPRTAIAATSFGAGNSSIYMRIYFVNSDNTIWQVCWDHGKGYHDKGTITPVIQGSEVAIISWGSFANNGPDLRLYFQNGTYISAVSEWVWNRAHGSQLGRSALPPA
# Legend:
# Experiment in all cases: glycan array binding signal (z-score within array); higher = stronger binding
# Conditions in all cases: glycan notation: IUPAC condensed, linker removed
# [1] = biological target: GlcNAc(b1-3)Gal(b1-3)GalNAc
# Method in brief: (§1)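 Arrays were curated from the Consortium for Functional Glycomics database, 3228 in total, and kept only where the protein sequence was available. Binding is expressed as a within-array Z-score. This score was averaged across arrays of the same protein sequence at different concentrations or buffers and across linkers, and negative values can be read as non-binding.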
# [2] = biological target: GlcNAc(b1-3)Gal(b1-4)Glc
# Method in brief: as §1
# [3] = biological target: GlcNAc(b1-3)Gal(b1-4)GlcNAc
# Method in brief: as §1
# [4] = biological target: GlcNAc(b1-3)Gal(b1-4)GlcNAc(b1-3)Gal(b1-4)GlcNAc
# Method in brief: as §1
# [5] = biological target: GlcNAc(b1-3)GalNAc
# Method in brief: as §1
# [6] = biological target: GlcNAc(b1-3)Man
# Method in brief: as §1
# [7] = biological target: GlcNAc(b1-3)[GlcNAc(b1-4)][GlcNAc(b1-6)]GlcNAc
# Method in brief: as §1
# [8] = biological target: GlcNAc(b1-3)[GlcNAc(b1-6)]Gal(b1-4)GlcNAc
# Method in brief: as §1
# [9] = biological target: GlcNAc(b1-3)[GlcNAc(b1-6)]GalNAc
# Method in brief: as §1
# [10] = biological target: GlcNAc(b1-4)Gal(b1-4)GlcNAc
# Method in brief: as §1
# [11] = biological target: GlcNAc(b1-4)GlcNAc
# Method in brief: as §1
# [12] = biological target: GlcNAc(b1-4)GlcNAc(b1-4)GlcNAc
# Method in brief: as §1
# [13] = biological target: GlcNAc(b1-4)GlcNAc(b1-4)GlcNAc(b1-4)GlcNAc(b1-4)GlcNAc
# Method in brief: as §1
# [14] = biological target: GlcNAc(b1-4)GlcNAc(b1-4)GlcNAc(b1-4)GlcNAc(b1-4)GlcNAc(b1-4)GlcNAc
# Method in brief: as §1
# [15] = biological target: GlcNAc(b1-4)[GlcNAc(b1-6)]GalNAc
# Method in brief: as §1
# [16] = biological target: GlcNAc(b1-6)Gal(b1-4)GlcNAc
# Method in brief: as §1
# [17] = biological target: GlcNAc(b1-6)GalNAc
# Method in brief: as §1
# [18] = biological target: GlcNAc3Prop(b1-4)GlcNAc
# Method in brief: as §1
# [19] = biological target: GlcNAc6S(b1-3)Gal(b1-4)GlcNAc
# Method in brief: as §1
# [20] = biological target: Kdn(a2-3)Gal(b1-3)GalNAc
# Method in brief: as §1
# [21] = biological target: Kdn(a2-3)Gal(b1-3)GlcNAc
# Method in brief: as §1
# [22] = biological target: Kdn(a2-3)Gal(b1-4)Glc
# Method in brief: as §1
# [23] = biological target: Kdn(a2-3)Gal(b1-4)GlcNAc
# Method in brief: as §1
# [24] = biological target: Kdn(a2-3)Gal(b1-4)[Fuc(a1-3)]GlcNAc
# Method in brief: as §1
# [25] = biological target: Kdn(a2-6)Gal(b1-4)GlcNAc
# Method in brief: as §1
# [26] = biological target: Man(a1-2)Man(a1-2)Man(a1-3)Man
# Method in brief: as §1
# [27] = biological target: Man(a1-2)Man(a1-2)Man(a1-6)[Man(a1-3)]Man
# Method in brief: as §1
# [28] = biological target: Man(a1-2)Man(a1-3)Man
# Method in brief: as §1
# [29] = biological target: Man(a1-2)Man(a1-3)[Man(a1-2)Man(a1-6)]Man
# Method in brief: as §1
# [30] = biological target: Man(a1-2)Man(a1-3)[Man(a1-2)Man(a1-6)]Man(a1-6)[Man(a1-2)Man(a1-2)Man(a1-3)]Man
# Method in brief: as §1
# [31] = biological target: Man(a1-2)Man(a1-3)[Man(a1-2)Man(a1-6)]Man(a1-6)[Man(a1-2)Man(a1-2)Man(a1-3)]Man(b1-4)GlcNAc(b1-4)GlcNAc
# Method in brief: as §1
# [32] = biological target: Man(a1-2)Man(a1-3)[Man(a1-6)]Man(a1-6)[Man(a1-2)Man(a1-3)]Man(b1-4)GlcNAc(b1-4)GlcNAc
# Method in brief: as §1
# [33] = biological target: Man(a1-2)Man(a1-6)[Man(a1-3)]Man(a1-6)[Man(a1-2)Man(a1-2)Man(a1-3)]Man
# Method in brief: as §1
# [34] = biological target: Man(a1-2)Man(a1-6)[Man(a1-3)]Man(a1-6)[Man(a1-2)Man(a1-2)Man(a1-3)]Man(b1-4)GlcNAc(b1-4)GlcNAc
# Method in brief: as §1
# [35] = biological target: Man(a1-3)[Man(a1-6)]Man
# Method in brief: as §1
# [36] = biological target: Man(a1-3)[Man(a1-6)]Man(a1-6)[Man(a1-2)Man(a1-3)]Man(b1-4)GlcNAc(b1-4)GlcNAc
# Method in brief: as §1
# [37] = biological target: Man(a1-3)[Man(a1-6)]Man(a1-6)[Man(a1-3)]Man
# Method in brief: as §1
# [38] = biological target: Man(a1-3)[Man(a1-6)]Man(a1-6)[Man(a1-3)]Man(b1-4)GlcNAc(b1-4)GlcNAc
# Method in brief: as §1
# [39] = biological target: Man(a1-3)[Man(a1-6)]Man(b1-4)GlcNAc(b1-4)GlcNAc
# Method in brief: as §1
# [40] = biological target: Man(a1-6)Man
# Method in brief: as §1
# [41] = biological target: Man(b1-4)GlcNAc
# Method in brief: as §1
# [42] = biological target: Neu5Ac(a2-3)Gal
# Method in brief: as §1
# [43] = biological target: Neu5Ac(a2-3)Gal(b1-3)GalNAc
# Method in brief: as §1
# [44] = biological target: Neu5Ac(a2-3)Gal(b1-3)GalNAc(b1-3)Gal(a1-4)Gal(b1-4)Glc
# Method in brief: as §1
# [45] = biological target: Neu5Ac(a2-3)Gal(b1-3)GalNAc(b1-4)[Neu5Ac(a2-3)]Gal(b1-4)Glc
# Method in brief: as §1
# [46] = biological target: Neu5Ac(a2-3)Gal(b1-3)GalNAc(b1-4)[Neu5Ac(a2-8)Neu5Ac(a2-3)]Gal(b1-4)Glc
# Method in brief: as §1
# [47] = biological target: Neu5Ac(a2-3)Gal(b1-3)GalNAc6S
# Method in brief: as §1
# [48] = biological target: Neu5Ac(a2-3)Gal(b1-3)GlcNAc
# Method in brief: as §1
# [49] = biological target: Neu5Ac(a2-3)Gal(b1-3)GlcNAc(b1-2)Man(a1-3)[Neu5Ac(a2-3)Gal(b1-3)GlcNAc(b1-2)Man(a1-6)]Man(b1-4)GlcNAc(b1-4)GlcNAc
# Method in brief: as §1
# [50] = biological target: Neu5Ac(a2-3)Gal(b1-3)GlcNAc(b1-3)Gal(b1-3)GlcNAc
# Method in brief: as §1
# [51] = biological target: Neu5Ac(a2-3)Gal(b1-3)GlcNAc(b1-3)Gal(b1-4)GlcNAc
# Method in brief: as §1
# [52] = biological target: Neu5Ac(a2-3)Gal(b1-3)GlcNAc(b1-3)GalNAc
# Method in brief: as §1
# [53] = biological target: Neu5Ac(a2-3)Gal(b1-3)GlcNAc6S
# Method in brief: as §1
# [54] = biological target: Neu5Ac(a2-3)Gal(b1-3)[Fuc(a1-4)]GlcNAc
# Method in brief: as §1
# [55] = biological target: Neu5Ac(a2-3)Gal(b1-3)[Fuc(a1-4)]GlcNAc(b1-3)Gal(b1-3)[Fuc(a1-4)]GlcNAc
# Method in brief: as §1
# [56] = biological target: Neu5Ac(a2-3)Gal(b1-3)[Fuc(a1-4)]GlcNAc(b1-3)Gal(b1-4)[Fuc(a1-3)]GlcNAc
# Method in brief: as §1
# [57] = biological target: Neu5Ac(a2-3)Gal(b1-3)[Neu5Ac(a2-3)Gal(b1-4)]GlcNAc
# Method in brief: as §1
# [58] = biological target: Neu5Ac(a2-3)Gal(b1-3)[Neu5Ac(a2-6)]GalNAc
# Method in brief: as §1
# [59] = biological target: Neu5Ac(a2-3)Gal(b1-4)Glc
# Method in brief: as §1
# [60] = biological target: Neu5Ac(a2-3)Gal(b1-4)GlcNAc
# Method in brief: as §1
# [61] = biological target: Neu5Ac(a2-3)Gal(b1-4)GlcNAc(b1-2)Man(a1-3)[GlcNAc(b1-2)Man(b1-4)GlcNAc(b1-2)Man(a1-6)]Man(b1-4)GlcNAc(b1-4)GlcNAc
# Method in brief: as §1
# [62] = biological target: Neu5Ac(a2-3)Gal(b1-4)GlcNAc(b1-2)Man(a1-3)[Neu5Ac(a2-6)Gal(b1-4)GlcNAc(b1-2)Man(a1-6)]Man(b1-4)GlcNAc(b1-4)GlcNAc
# Method in brief: as §1
# [63] = biological target: Neu5Ac(a2-3)Gal(b1-4)GlcNAc(b1-3)Gal
# Method in brief: as §1
# [64] = biological target: Neu5Ac(a2-3)Gal(b1-4)GlcNAc(b1-3)Gal(b1-3)GlcNAc
# Method in brief: as §1
# [65] = biological target: Neu5Ac(a2-3)Gal(b1-4)GlcNAc(b1-3)Gal(b1-4)GlcNAc
# Method in brief: as §1
# [66] = biological target: Neu5Ac(a2-3)Gal(b1-4)GlcNAc(b1-3)Gal(b1-4)GlcNAc(b1-3)Gal(b1-4)GlcNAc
# Method in brief: as §1
binder,measurement,setting,value
B1,glycan array binding signal (z-score),[1],-0.378
same,glycan array binding signal (z-score),[2],-0.386
same,glycan array binding signal (z-score),[3],-0.39
same,glycan array binding signal (z-score),[4],-0.387
same,glycan array binding signal (z-score),[5],-0.386
same,glycan array binding signal (z-score),[6],-0.384
same,glycan array binding signal (z-score),[7],-0.383
same,glycan array binding signal (z-score),[8],-0.39
same,glycan array binding signal (z-score),[9],-0.363
same,glycan array binding signal (z-score),[10],-0.384
same,glycan array binding signal (z-score),[11],-0.384
same,glycan array binding signal (z-score),[12],-0.384
same,glycan array binding signal (z-score),[13],-0.38
same,glycan array binding signal (z-score),[14],-0.382
same,glycan array binding signal (z-score),[15],-0.386
same,glycan array binding signal (z-score),[16],-0.379
same,glycan array binding signal (z-score),[17],-0.386
same,glycan array binding signal (z-score),[18],-0.389
same,glycan array binding signal (z-score),[19],-0.375
same,glycan array binding signal (z-score),[20],-0.376
same,glycan array binding signal (z-score),[21],-0.381
same,glycan array binding signal (z-score),[22],-0.393
same,glycan array binding signal (z-score),[23],-0.381
same,glycan array binding signal (z-score),[24],-0.35
same,glycan array binding signal (z-score),[25],-0.388
same,glycan array binding signal (z-score),[26],-0.388
same,glycan array binding signal (z-score),[27],-0.386
same,glycan array binding signal (z-score),[28],-0.381
same,glycan array binding signal (z-score),[29],-0.386
same,glycan array binding signal (z-score),[30],-0.384
same,glycan array binding signal (z-score),[31],-0.387
same,glycan array binding signal (z-score),[32],-0.345
same,glycan array binding signal (z-score),[33],-0.391
same,glycan array binding signal (z-score),[34],-0.376
same,glycan array binding signal (z-score),[35],-0.39
same,glycan array binding signal (z-score),[36],-0.395
same,glycan array binding signal (z-score),[37],-0.39
same,glycan array binding signal (z-score),[38],-0.383
same,glycan array binding signal (z-score),[39],-0.34
same,glycan array binding signal (z-score),[40],-0.386
same,glycan array binding signal (z-score),[41],-0.391
same,glycan array binding signal (z-score),[42],-0.391
same,glycan array binding signal (z-score),[43],-0.385
same,glycan array binding signal (z-score),[44],-0.385
same,glycan array binding signal (z-score),[45],-0.391
same,glycan array binding signal (z-score),[46],-0.382
same,glycan array binding signal (z-score),[47],-0.387
same,glycan array binding signal (z-score),[48],-0.385
same,glycan array binding signal (z-score),[49],-0.411
same,glycan array binding signal (z-score),[50],-0.389
same,glycan array binding signal (z-score),[51],-0.38
same,glycan array binding signal (z-score),[52],-0.385
same,glycan array binding signal (z-score),[53],-0.392
same,glycan array binding signal (z-score),[54],0.882
same,glycan array binding signal (z-score),[55],0.537
same,glycan array binding signal (z-score),[56],0.527
same,glycan array binding signal (z-score),[57],-0.388
same,glycan array binding signal (z-score),[58],-0.332
same,glycan array binding signal (z-score),[59],-0.383
same,glycan array binding signal (z-score),[60],-0.376
same,glycan array binding signal (z-score),[61],-0.387
same,glycan array binding signal (z-score),[62],-0.384
same,glycan array binding signal (z-score),[63],-0.175
same,glycan array binding signal (z-score),[64],-0.385
same,glycan array binding signal (z-score),[65],-0.388
same,glycan array binding signal (z-score),[66],-0.39
